The supplement of paper PMC4604168 (melanoma cell lines)
This is one part of the list. Most values come without repeats; read them as rough.

Tests used:
Assay in all cases: cell count relative to DMSO control; melanoma cells; higher = more viable cells
Settings in all cases: library dose: low library concentration; 72 h
[1] = tested on: WM115
[2] = tested on: WM1716
[3] = tested on: WM1745
[4] = tested on: WM3526
[5] = tested on: WM3619
[6] = tested on: WM451Lu
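Also: cell number obtained by counting DAPI-stained nuclei in high-throughput microscope images with image analysis software, screen run in 1,536-well plates.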

SMILES | cell count [1] [%] | cell count [2] [%] | cell count [3] [%] | cell count [4] [%] | cell count [5] [%] | cell count [6] [%]
Cc1cc(Nc2cc(N3CCN(C)CC3)nc(/C=C/c3ccccc3)n2)n[nH]1 + CCCS(=O)(=O)Nc1ccc(F)c(C(=O)c2c[nH]c3ncc(Cl)cc23)c1F [PLX4720] (first compound 0.04 µM, partner dose 0.08 µM) | 87 | 119 | 106 | 71.8 | 100 | 111
Cc1cn(-c2cc(NC(=O)c3ccc(C)c(Nc4nccc(-c5cccnc5)n4)c3)cc(C(F)(F)F)c2)cn1 [nilotinib] + O=C(Nc1cccc(Cl)c1)Nc1ncc(CCNc2ncnc3ccsc23)s1 [SNS314] (first compound 0.2 µM, partner dose 0.0008 µM) | 81 | 106 | 79.9 | 87.9 | 90.1 | 153
Cc1cc(Nc2cc(N3CCN(C)CC3)nc(/C=C/c3ccccc3)n2)n[nH]1 + O=S(=O)(c1ccccc1)N(CC(F)(F)F)c1ccc(C(O)(C(F)(F)F)C(F)(F)F)cc1 [T0901317] (first compound 0.04 µM, partner dose 1.4 µM) | 86.8 | 57.2 | 81.1 | 92 | 109 | 93.6
CC(C)C[C@H](NC(=O)[C@H](Cc1ccccc1)NC(=O)c1cnccn1)B(O)O [Bortezomib] + O=C(O)c1ccc(-c2c[nH]c3ncc(-c4ccccc4)cc23)cc1C1CCCC1 [GSK650394] (first compound 0.001 µM, partner dose 0.16 µM) | 89.8 | 30.4 | 57.2 | 80.8 | 19.2 | 72.4
Cn1c(=O)n(-c2ccc(C(C)(C)C#N)cc2)c2c3cc(-c4cnc5ccccc5c4)ccc3ncc21 + COc1cc(Nc2ncc(F)c(Nc3ccc4c(n3)NC(=O)C(C)(C)O4)n2)cc(OC)c1OC [Tamatinib] (first compound 0.004 µM, partner dose 0.4 µM) | 69.1 | 65.2 | 70 | 72.6 | 86.2 | 98.9
Cc1cc(Nc2cc(N3CCN(C)CC3)nc(/C=C/c3ccccc3)n2)n[nH]1 + CC(C)(C)c1cnc(CSc2cnc(NC(=O)C3CCNCC3)s2)o1 [SNS-032] (first compound 0.04 µM, partner dose 0.01 µM) | 85.2 | 84.1 | 89 | 90.9 | 80.5 | 110
Cc1cc(Nc2cc(N3CCN(C)CC3)nc(/C=C/c3ccccc3)n2)n[nH]1 + COc1cc(N2CCC(N3CCN(C)CC3)CC2)ccc1Nc1ncc(Cl)c(Nc2ccccc2S(=O)(=O)C(C)C)n1 [NVP-TAE684] (first compound 0.04 µM, partner dose 0.08 µM) | 82.3 | 97.5 | 78.8 | 67.3 | 94.8 | 86.4
Cn1c(=O)n(-c2ccc(C(C)(C)C#N)cc2)c2c3cc(-c4cnc5ccccc5c4)ccc3ncc21 + Cc1cc([N+](=O)[O-])ccc1NS(=O)(=O)c1cc(Cl)ccc1Cl [FH535] (first compound 0.004 µM, partner dose 1 µM) | 78.3 | 77.8 | 104 | 77.6 | 80.9 | 98
Cc1cn(-c2cc(NC(=O)c3ccc(C)c(Nc4nccc(-c5cccnc5)n4)c3)cc(C(F)(F)F)c2)cn1 [nilotinib] + COCC[n+]1c2c(n(Cc3cnccn3)c1C)C(=O)c1ccccc1C2=O [YM155] (first compound 0.2 µM, partner dose 0.0004 µM) | 113 | 100 | 99.1 | 103 | 103 | 121
